{"source": "PubChem BioAssay AID624417", "about": "(National Center for Advancing Translational Sciences (NCATS), 2012)", "note": "Values joined by “and” are separate entries in the source; they are usually repeats but may differ in a detail not shown here. Equal values may be shown once. Hit rate of the full screen: of about 410,000 compounds, about 6,400 (1.6%) were called active. Inconclusive means that the source gave no clear call. Such entries were picked first, then a sample of the others. Calls come from the whole dose curve; as a rule, active = well fitted inhibition curve with a large enough effect; inconclusive = small, poorly fitted or top-dose-only effect; inactive = no such curve, though single readings can be large or run the other way. A potency beside an inconclusive call is a rough fit, not a confirmed value. % is set by controls: 0 for no effect and ±100 for the full control effect; potency is the fitted concentration of half-maximal effect; tags give direction and shape of the fitted curve.", "data": [{"biological_target": "Glucagon-like peptide 1 receptor (Homo sapiens) (UniProt P43220)", "sequence (P43220 whole entry, looked up)": "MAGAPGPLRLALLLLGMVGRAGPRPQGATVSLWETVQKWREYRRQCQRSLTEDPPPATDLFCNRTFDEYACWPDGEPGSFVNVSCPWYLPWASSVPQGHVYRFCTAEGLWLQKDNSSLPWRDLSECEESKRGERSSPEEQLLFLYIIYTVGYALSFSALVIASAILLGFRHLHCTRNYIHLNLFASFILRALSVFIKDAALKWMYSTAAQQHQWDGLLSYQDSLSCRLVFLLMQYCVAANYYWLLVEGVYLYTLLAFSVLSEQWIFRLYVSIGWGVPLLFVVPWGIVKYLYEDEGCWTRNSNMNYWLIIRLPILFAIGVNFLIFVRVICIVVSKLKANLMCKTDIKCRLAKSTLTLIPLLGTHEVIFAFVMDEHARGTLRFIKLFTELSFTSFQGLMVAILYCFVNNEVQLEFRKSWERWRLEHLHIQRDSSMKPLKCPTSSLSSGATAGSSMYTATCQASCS", "test": "qHTS of GLP-1 Receptor Inverse Agonists (Inhibition Mode); note: nearly all actives have a fitted effect of over 55% in size", "conditions": "HEK293 GLP-1R CRE-luciferase, luminescence, 24 h, GLP-1R form is constitutively active; activity change, negative = inhibition: at 38.3 µM (top of the series) unless noted", "procedure,_shortened": "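Constitutively active GLP-1R drives a cAMP-responsive luciferase in stably transfected HEK293 cells; test compounds are added after overnight (12 h) attachment and left 24 hr, and signal loss in luminescence marks inhibition.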", "values": [{"smiles": "O=C(c1ccccc1)c1ccccc1NC(=O)C1CCCN1Cc1ccccc1", "note": "(configuration not stated)", "Potency": "inconclusive: 12.6 µM [inhibitor, partial curve, poor fit]"}, {"smiles": "CC1CCCN(S(=O)(=O)c2cc(C(=O)NCCc3ccccc3)n(C)c2)C1", "note": "(configuration not stated)", "Potency": "inconclusive: 11.2 µM [inhibitor, single point]"}, {"smiles": "O=C(NC1CCCCC1)C(=O)c1c[nH]c2ccccc12", "Potency": "inconclusive: 20 µM [inhibitor, single point]"}, {"smiles": "N#CC(C#N)=C1SC(=Nc2ccccc2)C(=Nc2ccccc2)N1c1ccccc1", "Potency": "inconclusive: 3.55 µM [inhibitor, full curve, poor fit]"}, {"smiles": "COc1ccc(Cc2c(-c3ccc(Cl)cc3)nc3c(C)cc(Br)cn23)c(C)c1", "Potency": "inconclusive: 31.6 µM [inhibitor, partial curve, poor fit]"}, {"smiles": "COc1ccc(OC)c(C(=O)COC(=O)COc2ccccc2)c1", "Potency": "inconclusive: 11.2 µM [inhibitor, single point]"}, {"smiles": "Cc1ccc(SCC(=O)OC(C)C(=O)NCc2ccccc2)cc1", "note": "(configuration not stated)", "activity change, negative = inhibition": "inactive: 2.44%"}, {"smiles": "O=C(CCNC(=O)c1ccc([N+](=O)[O-])cc1)Nc1cccc(S(=O)(=O)N2CCCCCC2)c1", "Potency": "inconclusive: 28.2 µM [inhibitor, single point]"}, {"smiles": "Cc1cccc(OCC2CCCN(Cc3nc(C4CC4)no3)C2)c1", "note": "(configuration not stated)", "Potency": "inconclusive: 12.6 µM [inhibitor, single point]"}, {"smiles": "Cc1ccc(CSCCNC(=O)CN(c2cccc(C)c2C)S(=O)(=O)c2ccccc2)cc1", "Potency": "inconclusive: 15.8 µM [inhibitor, single point]"}, {"smiles": "CCN(CC(=O)NCCC1=CCCCC1)S(=O)(=O)c1ccccc1", "Potency": "inconclusive: 28.2 µM [inhibitor, single point]"}, {"smiles": "CCOC(=O)c1c(NC(=O)C(C)Sc2cn(CCNC(=O)c3ccc(OC)cc3)c3ccccc23)sc2c1CCC2", "note": "(configuration not stated)", "activity change, negative = inhibition": "inactive: 8.1%"}, {"smiles": "COc1ccc(C(=O)NC2CCCCCC2)cc1S(=O)(=O)N1CCCC1", "activity change, negative = inhibition": "inactive: 0.0345%"}, {"smiles": "Cc1ccc(NC(=S)N(C)Cc2cn(C)c3ccccc23)cc1", "Potency": "inconclusive: 28.2 µM [inhibitor, single point]"}, {"smiles": "CCCOCc1cc(CN2CCN(c3ccccc3OC)CC2)c(O)c2ncccc12", "Potency": "inconclusive: 5.62 µM [inhibitor, partial curve, poor fit]"}, {"smiles": "CCN(c1ccccc1)S(=O)(=O)c1ccc(C(=O)Nc2ccncc2)cc1", "Potency": "inconclusive: 7.08 µM [inhibitor, partial curve, poor fit]"}, {"smiles": "CCC(=O)N1Cc2cc(C(=O)Nc3nccs3)nc(-c3cccc(-c4ccccc4OC)c3)c2[C@H]1CCO", "Potency": "inconclusive: 14.1 µM [inhibitor, single point]"}, {"smiles": "CCC1(c2ccccc2)NC(=O)N(CC(=O)NNC(=O)CCN2CCN(c3ccccc3)CC2)C1=O", "note": "(configuration not stated)", "activity change, negative = inhibition": "inactive: -0.699%"}, {"smiles": "CCc1ccc(C(=O)Nc2cc3c(cc2Cl)OCCCO3)cc1", "Potency": "inconclusive: 11.2 µM [inhibitor, single point]"}, {"smiles": "COc1ccc(-n2nc(C(=O)NCC(=O)NC3CCCCC3)c3ccccc3c2=O)cc1", "activity change, negative = inhibition": "inactive: -16.7%"}, {"smiles": "CC(=O)N=c1sc(S(N)(=O)=O)nn1C", "activity change, negative = inhibition": "inactive: 15%"}, {"smiles": "CCn1c(SCC(=O)Nc2sccc2C(N)=O)nnc1C1CC1", "activity change, negative = inhibition": "inactive: 8.17%"}, {"smiles": "O=C(CC1N=C2c3ccccc3N=C(SCC(=O)Nc3ccccc3F)N2C1=O)NCc1ccc2c(c1)OCO2", "note": "(configuration not stated)", "activity change, negative = inhibition": "inactive: 0.0524%"}, {"smiles": "CC(=O)Nc1ccccc1OCCOc1ccc(Br)cc1", "Potency": "inconclusive: 12.6 µM [inhibitor, partial curve, poor fit]"}, {"smiles": "COc1ccc(N2CCN(C(=O)CN3C(=O)NC(C)(c4ccc5ccccc5c4)C3=O)CC2)cc1", "note": "(configuration not stated)", "Potency": "inconclusive: 28.2 µM [inhibitor, single point]"}, {"smiles": "Cc1ccc2occ(CC(=O)Nc3c(C(=O)Nc4ccc(Cl)cc4)oc4ccccc34)c2c1", "Potency": "inconclusive: 2.82 µM [inhibitor, full curve, poor fit]"}, {"smiles": "CCOc1ccc(N(CC(=O)NCc2cccs2)S(=O)(=O)c2c(C)noc2C)cc1", "Potency": "inconclusive: 31.6 µM [inhibitor, single point]"}, {"smiles": "Cc1cccc(C)c1NC(=O)CN(C)S(=O)(=O)c1ccc2[nH]c3c(c2c1)CCCC3", "Potency": "inconclusive: 28.2 µM [inhibitor, single point]"}, {"smiles": "O=C(CCCSc1nc(-c2ccco2)cc(C(F)(F)F)n1)NCc1cccs1", "Potency": "inconclusive: 20 µM [inhibitor, single point]"}, {"smiles": "Cc1ccc2[nH]c(C(=O)N3CCCCC3)cc2c1", "Potency": "inconclusive: 22.4 µM [inhibitor, single point]"}, {"smiles": "CCOc1ccc(C(=O)Nc2ccc3nc4c(c(Nc5ccccc5OC)c3c2)CCCC4)cc1", "activity change, negative = inhibition": "inactive: -16.8%"}, {"smiles": "CC(=O)n1nc(-c2ccccc2)cc1-c1ccccc1", "Potency": "inconclusive: 12.6 µM [inhibitor, single point]"}, {"smiles": "CCOc1ncccc1C(=O)OCC(=O)Nc1ccc(-c2nc3ccc(C)cc3s2)cc1", "activity change, negative = inhibition": "inactive: -18.3%"}, {"smiles": "O=C(Nc1cccc(NC(=O)c2cccc(F)c2)n1)c1cccc(F)c1", "Potency": "inconclusive: 28.2 µM [inhibitor, single point]"}, {"smiles": "CCc1nc2c(OCCOC)cccn2c1N(C)C(=O)c1ccc(C)cc1", "activity change, negative = inhibition": "inactive: -2.44%"}, {"smiles": "O=C(CNC(=O)OCc1ccccc1)NCC(=O)NC(Cc1c[nH]c2ccccc12)C(=O)O", "note": "(configuration not stated)", "activity change, negative = inhibition": "inactive: 4.43%"}, {"smiles": "CNC(=S)N(Cc1ccco1)Cc1cc2cc(OC)c(OC)cc2[nH]c1=O", "activity change, negative = inhibition": "inactive: 2.64%"}, {"smiles": "Cc1ccc(-c2csc(NNC(=O)c3ccccc3)n2)cc1", "Potency": "inconclusive: 12.6 µM [inhibitor, partial curve, poor fit]"}, {"smiles": "CCOC(=O)CC(NS(=O)(=O)c1cc(-c2cc(C)no2)ccc1C)c1ccc(C)cc1", "note": "(configuration not stated)", "Potency": "inconclusive: 28.2 µM [inhibitor, single point]"}, {"smiles": "Cc1ccc(OCc2ccc(C(=O)O)o2)cc1C", "Potency": "inconclusive: 11.2 µM [inhibitor, single point]"}, {"smiles": "S=C(NCCSCc1ccc(Cl)cc1Cl)Nc1ccccc1", "Potency": "active: 3.55 µM"}, {"smiles": "COc1ccc(C(C(=O)NC2CCCCC2)N(C(=O)Cc2c[nH]c3ccccc23)c2ccccc2)cc1OC", "note": "(configuration not stated)", "Potency": "inconclusive: 10 µM [inhibitor, partial curve, poor fit]"}, {"smiles": "Cc1cc(C(=O)OCC(=O)NC(=O)NC(C)(C)C)c(C)o1", "Potency": "inconclusive: 10 µM [inhibitor, single point]"}, {"smiles": "O=C(CCOc1ccccc1)Nc1ccc(S(=O)(=O)N2CCCC2)cc1", "Potency": "inconclusive: 10 µM [inhibitor, partial curve]"}, {"smiles": "COc1ccc(C=CC(=O)c2ccc3cc(OC)c(OC)cc3c2)cc1OC", "Potency": "inconclusive: 28.2 µM [inhibitor, single point]"}, {"smiles": "COc1ccc(NC(=O)c2ccc3c(c2)CCN3S(=O)(=O)c2ccccc2)cc1", "Potency": "inconclusive: 17.8 µM [inhibitor, partial curve, poor fit] and inconclusive: 14.1 µM [inhibitor, partial curve, poor fit]"}, {"smiles": "OC(CN1CCN(c2ccc(F)cc2)CC1)c1ccc(Cl)cc1", "note": "(configuration not stated)", "Potency": "inconclusive: 7.08 µM [inhibitor, partial curve, poor fit]"}, {"smiles": "COc1cc2c(cc1OC)n(CC(=O)c1ccc(C)cc1)c(=O)n1nc(CCn3nc(C)cc3C)nc21", "activity change, negative = inhibition": "inactive: -13.5%"}, {"smiles": "O=C(NCc1ccc2c(c1)OCO2)c1c(-c2ccsc2)sc2ccccc12", "Potency": "inconclusive: 2 µM [inhibitor, partial curve, poor fit]"}, {"smiles": "NC(=O)CC(NC(=O)Cc1ccc(Br)cc1)c1ccc(NCc2ccc(F)c(F)c2)c([N+](=O)[O-])c1", "note": "(configuration not stated)", "Potency": "inconclusive: 22.4 µM [inhibitor, single point]"}, {"smiles": "OC(c1ccc2ccccc2c1)c1ncc(-c2ccc(C(F)(F)F)cc2)[nH]1", "note": "(configuration not stated)", "Potency": "active: 10 µM"}, {"smiles": "O=C(/C=C/c1ccc2ccccc2n1)N1CCN(S(=O)(=O)c2ccc(F)cc2)CC1", "Potency": "inconclusive: 14.1 µM [inhibitor, partial curve, poor fit]"}, {"smiles": "C=CCN=C(NC#N)SC", "activity change, negative = inhibition": "inactive: 2.91%"}, {"smiles": "CCc1ccc(CN/C=C/C(=O)c2ccc(Br)cc2)cc1", "Potency": "inconclusive: 20 µM [inhibitor, single point]"}, {"smiles": "COc1ccc(C(C)(O)c2nc(-c3ccccc3C)cs2)cc1", "note": "(configuration not stated)", "Potency": "inconclusive: 3.16 µM [inhibitor, full curve]"}, {"smiles": "COC(=O)c1ccc(NC(=S)NCCc2ccccc2C)cc1", "Potency": "inconclusive: 11.2 µM [inhibitor, partial curve, poor fit]"}, {"smiles": "CCOc1cc(/C=N/Nc2ccccc2Cl)ccc1OCC(=O)O", "Potency": "inconclusive: 1 µM [inhibitor, full curve, poor fit]"}, {"smiles": "CCOc1cc(OCC)cc(C(=O)N2CCC[C@H]2C(=O)N2CCC[C@H]2C(=O)NCc2ccccn2)c1", "activity change, negative = inhibition": "inactive: 21.4%"}, {"smiles": "O=C(Cc1ccc(Br)cc1)Nc1ccc(S(=O)(=O)NCC2CCCO2)cc1", "note": "(configuration not stated)", "Potency": "inconclusive: 22.4 µM [inhibitor, single point]"}, {"smiles": "CCOc1ccc(CC(=O)NCc2ccc3c(c2)CCN3C(C)=O)cc1OCC", "activity change, negative = inhibition": "inactive: 11.9%"}, {"smiles": "COCCCNC(=O)CCc1nnc2ccc(N3CCC(C)CC3)nn12", "activity change, negative = inhibition": "inactive: 10.6%"}, {"smiles": "O=S1(=O)N[C@@H](Cc2ccccc2)COc2cc(Br)ccc21", "Potency": "inconclusive: 3.98 µM [inhibitor, single point]"}, {"smiles": "CCOC(=O)c1sc(NS(=O)(=O)c2ccc(F)cc2)nc1C", "activity change, negative = inhibition": "inactive: -1.81%"}, {"smiles": "CCCCOc1ccc(CSC2=NCCN2)cc1[N+](=O)[O-]", "Potency": "active: 10 µM"}, {"smiles": "COc1ccc2c(c1)CCc1c(C(=O)NCc3ccco3)noc1-2", "activity change, negative = inhibition": "inactive: 0%"}, {"smiles": "Cc1cccc(Cc2nnc(CCC(=O)N(C)CCc3ccccc3)o2)c1", "activity change, negative = inhibition": "inactive: 17.2%"}, {"smiles": "COc1ccccc1N1CCN(C(=O)c2cc(S(=O)(=O)N3CCCCC3)ccc2C)CC1", "Potency": "inconclusive: 8.91 µM [inhibitor, partial curve, poor fit]"}]}]}
